From the RNAGym collection of RNA variant scans (doi:10.7554/elife.90254)
The source gives no read counts; variants with many changes may rest on few reads.

B1: LINE1-mini (parent)
chain: GGCAGAGCUCAACACAGCGUGGCAAAGUGGCUGUGGCUAGACUGCC

Variants of: B1
Test: self-cleavage, relative activity (ratio to wild type); higher = more cleavage; in vitro, sequencing; the parent is a self-cleaving ribozyme

Row | Variant | self-cleavage
1 | GGCAGAGGUCAACACAGCGUGGCGAAGUGGCUGUGGGUAGACUGCC [C8G A24G C37G] | 0.05
2 | GGCAGUGCUCAUCUCAGCGUGGCAAAGUGGCUGUUGCUAGACUGCC [A6U A12U A14U G35U] | 0.11
3 | GACAGAGCUCAGCACAGCGUGGCAAAGUGGCUGUGGCUAAACUGCC [G2A A12G G40A] | 0.06
4 | GGCAGAGCUCAACACAGCGUGGCAAAGUGGCUAUGGCUUGACUGUC [G33A A39U C45U] | 0.04
5 | GGCAGAGCUCAUCAAAGCGUUGCAAAGUGGCUGUGGCUAGACUGCC [A12U C15A G21U] | 0.07
6 | GGCAGAGCGCAACAUAGCGUGGCAACGUGGCUGUGGCUAGACUGCC [U9G C15U A26C] | 0.02
7 | GCCAGAGCUCAACACAGCGUAGCAUGGUGGCUGUGGCUAGAAUGCC [G2C G21A A25U A26G C42A] | 0.22
8 | GGCAGAGCUCAACACAGCGUGGCAAGGUGGCUGUGGCUAGACUGUG [A26G C45U C46G] | 0.12
9 | GUCACAGCUAAACACAGCGUGGCAAAGUGGCUGUGGCUCGACUGCC [G2U G5C C10A A39C] | 0.02
10 | GGCAGAGCCCAACACAGGAUGGCAAAGUGGCUGCGGCUAGACUGCC [U9C C18G G19A U34C] | 0.02
11 | GGCAGAGCUCAACAAAGCGUGGCUAAGUAGUUGUGGCUAGACAGCC [C15A A24U G29A C31U U43A] | 0.04
12 | GACAGAGCUCAACACAGCGUGUCAAAGUUGCUGUGGCUAGACUGCC [G2A G22U G29U] | 2.89
13 | GGCAGAGCUCAACACAGCGUGACAAAGUGGCGGUGGAUAGACUGCC [G22A U32G C37A] | 0.04
14 | GGCAGAGCUCAACACACCGUGGCAAAGUAGCUGUGCCUAGACUGCC [G17C G29A G36C] | 0.03
15 | GGCAGAGCUCAACACAGCGUGGCAACGUGGCUGUGGCUUCACGGCC [A26C A39U G40C U43G] | 0.1
16 | GGAAGAGCUCACCACAGCGUGGCAAAGUGGCAGUGAAUAGACUGCC [C3A A12C U32A G36A C37A] | 0.05
17 | AGCAUAGCUAUACACAGCGUGGUUAAGUGGCUGUGGCUAGACUGCC [G1A G5U C10A A11U C23U A24U] | 0.04
18 | GGCUGAGCUCAACACGGCGUGGCAAAGUGGCUAUGGCAAGACUGCC [A4U A16G G33A U38A] | 0.01
19 | GACAGAGCUCAACACAGCUUGGCAAAGUGUCUGUGGCUAGAUUGCC [G2A G19U G30U C42U] | 0.07

Row | Variant | self-cleavage
20 | GGCAGAGCACAACACAGCGUGGCAAAGUGACUGUGGCUGGACUGCC [U9A G30A A39G] | 0.08
21 | GGCAGAGCUCAACACAACGUGGCAAACUGGCUUUCGCUCGACUGCA [G17A G27C G33U G35C A39C C46A] | 0.13
22 | GGCAGAGCUCAAAACAGCGUGGCAAAGUGGCUGAGGCUAGACCGCA [C13A U34A U43C C46A] | 0.02
23 | GGCAGAGCUAAACACAGCGAGGCAAGGGGGCUGUGGCUAGACUGCC [C10A U20A A26G U28G] | 0.03
24 | GGCAGAGCUCAACACAGUGUGGCAAAAUCGCAGGGGCUAGACUGCC [C18U G27A G29C U32A U34G] | 0.04
25 | GGCAGCGCUCAACACACCGUGACAAAGGUGCUCUGGCUAGACUGCC [A6C G17C G22A U28G G29U G33C] | 0.64
26 | GGCCGAGCUCAACACAGCGUGGCAAAGUGGCUGUGGCUAGAUUGAA [A4C C42U C45A C46A] | 0.01
27 | UGCAGAGCUCAUCACAGCGUGGCAAAGUGGCUGUGGCUAGACUGCG [G1U A12U C46G] | 0.48
28 | GGAAGAGCUCAACACAGCGUGGCAAUGUCGCCGUGGCUAGACUGCC [C3A A26U G29C U32C] | 0.16
29 | GGCAGAGUUCAACACAACUUGGCAAAGUGGCUUUGGCUAGACUGAC [C8U G17A G19U G33U C45A] | 0.05
30 | GGCAGAGCUCAACACAGCGUGGAACAGUGGCUGUGGAUAGACUGCC [C23A A25C C37A] | 0.01
31 | GGCAGAGCUCAACACAGCGUGGCAAAGUGGCUAUCGCUAGACUGGC [G33A G35C C45G] | 0.02
32 | GGCAGAGCCCAACACAGCGUGUAAAAGUGGCUGUGGCUAGAAUGCC [U9C G22U C23A C42A] | 0.01
33 | GGCAGAGCUCAACACAGCGUGGCAAAGUGGCAGUGGCUAGACGCCU [U32A U43G G44C C46U] | 0.02
34 | GGCAGAGCUAAACACAGGGUGGCACACUGGCUGUGGCUAGACUGCC [C10A C18G A25C G27C] | 0.53
35 | UGCAGAGCUCAACACAGCGUGGUAAAGUAGCUGUGGCUAGACUGAC [G1U C23U G29A C45A] | 0.98
36 | GGCACUGCUCAACAAAGCGUGGCAAAGUGGCUGUGGCUAGACUGGC [G5C A6U C15A C45G] | 0.05
37 | GGCAGAGCUCAACACAGCGUCGCAAAGUGGCUCUGGCUAGACUGGC [G21C G33C C45G] | 0.06
38 | CGCAAAGCUCAACACUGCGUGGCAAAGUGGCUGUGGCUAGACUGCC [G1C G5A A16U] | 0

Row | Variant | self-cleavage
39 | GGCAUAGCUCAACACAGCGUGGCAAAGUUGCGGUGGCUAGACUGCG [G5U G29U U32G C46G] | 0
40 | GGCAGAACUCAAAACAGCGUGGCAAAGUGGCUCUGGCUAGACUGCC [G7A C13A G33C] | 0.1
41 | GGCAGACCUCAGCACAGCGUGGCAAAGUGGCUGUGGCUGGACUGCC [G7C A12G A39G] | 0.14
42 | GGCAUAGCUCAACACAGCGGGGCAAAGUGGCUGUGGCUAGACCGCC [G5U U20G U43C] | 0.04
43 | GGCAGUGCUCAACACAGCGUGGCAAAGUGGCUUCGGCUAGCCUGCA [A6U G33U U34C A41C C46A] | 0.03
44 | GGCAGACCUCAACAAAGCGUGGCAAAUUGGCUGUGGCUCGACUGCC [G7C C15A G27U A39C] | 0.04
45 | GGCAGAGCUCAACCCAGCAUCGCAAAGUGACGGUGGCUAGACUGCC [A14C G19A G21C G30A U32G] | 0.02
46 | GGCAGAGCUCAACACAGCCUUGCAAAGUGGCUGUGGCGAGACUGCC [G19C G21U U38G] | 0.01
47 | GGCAGAGCUCAAAACAGCGUGGCAAACUGGCGGUGGCUUGACUGCC [C13A G27C U32G A39U] | 0.19
48 | UGCAGAGCUCAACAUAGCGUGGCAAAGUGGCUGUGGCUAGACCGCG [G1U C15U U43C C46G] | 0.01
49 | GGCAGAGUUUAACACAGCGUGGCAAAGUGGCUGUGGCUAGACUUGC [C8U C10U G44U C45G] | 0.03
50 | GUCAUAGCUCAACACAGCGCGGCAAAGUGGCUGUGGCUAGACUGCC [G2U G5U U20C] | 0.01
51 | GGCACAGCUCAACACAGCGUGGCAAAGUUGCUGUGGCUAGACUGCA [G5C G29U C46A] | 0.11
52 | GGCAGAGCUCAACACAGCGUAUCAAAGUGGUUGUGGCUAGACUGCC [G21A G22U C31U] | 0.17
53 | GACAGCGCUCAACACAGCGUGGCAAAGUGACUGUGGCUAGACUGAC [G2A A6C G30A C45A] | 0.24
54 | GGAAGAUGUCACCACAGCGUGGCAAAGUGGCUGUGGUUUGACUGCC [C3A G7U C8G A12C C37U A39U] | 0.02
55 | GGCAGAGCUCCACACAGCGUGGCAAAGUGUCUAUGGUUAGACUGCC [A11C G30U G33A C37U] | 0.03
56 | GGCAGAGCUCAUCACAGCGUGGCAAAGUGGCUCUGGCUAGGCUGCC [A12U G33C A41G] | 0.13
